Source: article PMC10668032
This is one part of the list. At the low end of the ranking the order means little.

Each sequence was assayed against SIX1-Q177R homeodomain (UniProt Q15475) (assay: universal protein binding microarray). Details: Universal all-10-mer PBM (8x60K, AMADID 030236), 300 nM GST-tagged protein, Alexa Fluor 488 anti-GST; buffer, salt, pH and temperature not stated; high values mean tight binding; most listed sequences are background and not binding sites; double strand, one strand shown.
CTAAACGC showed a binding signal of -0.167 E-score.
Work on CTAATTTC yielded a binding signal of -0.156 E-score.
ACCCTGTC gave a binding signal of 0.0909 E-score.
Work on CTACATTC yielded a binding signal of -0.271 E-score.
Sequence ACACGAAG has a binding signal of 0.346 E-score.
For CGGGCAGC, the binding signal was -0.028 E-score.
For ACAAAGAC, the binding signal was -0.0879 E-score.
CGTGCAGA gave a binding signal of -0.0542 E-score.
Sequence GACATGAA has a binding signal of -0.207 E-score.
With AACTTTTC the binding signal was -0.0854 E-score.
For ACAACAGG, the binding signal was -0.159 E-score.
ACCAGGAC was tested, and the binding signal was 0.107 E-score.
AACGGGGA showed a binding signal of -0.021 E-score.
Sequence ACTCGGTC has a binding signal of 0.00537 E-score.
ACCCGGTG showed a binding signal of 0.36 E-score.
Sequence CTTTGTCA has a binding signal of 0.0588 E-score.
GCCGTGCA gave a binding signal of 0.0869 E-score.
CGCGCACA was tested, and the binding signal was 0.138 E-score.
GACACTTA was tested, and the binding signal was 0.383 E-score.
AGCCACAG showed a binding signal of 0.103 E-score.
Sequence CAGGTCCC has a binding signal of 0.113 E-score.
AGGACCAC showed a binding signal of -0.177 E-score.
Sequence AAACGCTT has a binding signal of -0.171 E-score.
Sequence CGAGATGA has a binding signal of -0.0477 E-score.
For CACGTGGA, the binding signal was 0.243 E-score.
In the case of CCACAAAG, the binding signal is reported as -0.126 E-score.
AACTTATG gave a binding signal of -0.149 E-score.
For GAATAGGA, the binding signal was -0.215 E-score.
ACGAAGGA was tested, and the binding signal was -0.0452 E-score.
In the case of CCAATCCC, the binding signal is reported as -0.0489 E-score.
Sequence TATCTCCA has a binding signal of -0.0456 E-score.
For CATGGGGC, the binding signal was 0.00388 E-score.
For CCGCAACA, the binding signal was 0.17 E-score.
TGACGTCA showed a binding signal of 0.0147 E-score.
With ACTAGCGC the binding signal was -0.116 E-score.
Sequence ACTATTTG has a binding signal of -0.0593 E-score.
GTCGTTTA gave a binding signal of -0.0555 E-score.
CGTGAAGA gave a binding signal of -0.254 E-score.
Sequence AGCTGTAT has a binding signal of -0.26 E-score.
Work on ATCGCCGG yielded a binding signal of 0.0629 E-score.
In the case of GCCGTAGC, the binding signal is reported as -0.146 E-score.
Work on ACGACACA yielded a binding signal of 0.273 E-score.
GTTAATTA gave a binding signal of 0.0411 E-score.
With GATGCTGC the binding signal was -0.128 E-score.
ATTTACCC gave a binding signal of 0.127 E-score.
With GTATCCTA the binding signal was 0.187 E-score.
In the case of CTCCGCAC, the binding signal is reported as -0.126 E-score.
AAAGTATT gave a binding signal of -0.198 E-score.
In the case of ACTCCCCT, the binding signal is reported as 0.249 E-score.
In the case of ACAAAACG, the binding signal is reported as -0.0378 E-score.
Sequence TCTTTGCA has a binding signal of -0.191 E-score.
With CTGGAAAG the binding signal was -0.207 E-score.
For GCTTCCGA, the binding signal was -0.145 E-score.
CCCCGAGA gave a binding signal of 0.17 E-score.
For CCCGTCGG, the binding signal was 0.0573 E-score.
With GACCGTAA the binding signal was -0.192 E-score.
Work on GGCCCGAC yielded a binding signal of -0.0945 E-score.
In the case of CCATTGAA, the binding signal is reported as -0.0388 E-score.
AAATACCT was tested, and the binding signal was -0.0393 E-score.
With GAAAGCAC the binding signal was 0.0259 E-score.
In the case of ACACGTAG, the binding signal is reported as 0.325 E-score.
For ACATCTTG, the binding signal was -0.0825 E-score.
Sequence AGTTCCTA has a binding signal of -0.201 E-score.
Sequence GGAGTAAC has a binding signal of 0.157 E-score.
In the case of CGGAGCAA, the binding signal is reported as -0.144 E-score.
AAGACATA gave a binding signal of -0.313 E-score.
Sequence ATTCCCCG has a binding signal of 0.0599 E-score.
ATCTGACA gave a binding signal of 0.275 E-score.
TCGCCTAA showed a binding signal of 0.0318 E-score.
With ACTCATAC the binding signal was -0.0846 E-score.
For ATGCTTCA, the binding signal was -0.242 E-score.
In the case of AGAAAAGG, the binding signal is reported as -0.165 E-score.
Sequence GCTGAAGC has a binding signal of -0.0212 E-score.
In the case of AACGGAAG, the binding signal is reported as -0.112 E-score.
GGCTCCCA gave a binding signal of -0.18 E-score.
AGTCCTTA was tested, and the binding signal was -0.189 E-score.
With CGAACATA the binding signal was -0.176 E-score.
Sequence GGTAAGAA has a binding signal of 0.00641 E-score.
GCTTACCC was tested, and the binding signal was 0.137 E-score.
GCGTACAC gave a binding signal of 0.412 E-score.
CACCTAGG gave a binding signal of 0.225 E-score.
For ATAGTCAT, the binding signal was -0.189 E-score.
With ACTGCTGG the binding signal was -0.0973 E-score.
TGCCCAAA showed a binding signal of -0.126 E-score.
In the case of GGTGGACA, the binding signal is reported as 0.137 E-score.
Work on ACTATACT yielded a binding signal of -0.00274 E-score.
